# Data as given in a collection of fitness landscapes (doi:10.1038/s41467-024-54723-y).
# Whole data set: some 18,000 sequences, median “TetR repression strength (sort-seq, GFP reporter)” near 0.23, cut for the highest 2% near 0.68. The list shows a part of the results.
# Biological target: TetR (class B, Tn10) (UniProt P04483)
# Assay: TetR repression strength (sort-seq, GFP reporter) (relative to tetO2 = 1); higher = stronger repression
# Settings: E. coli
# Outline: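 Escherichia coli SIG10-MAX cells carried a low-copy plasmid library in which eight operator positions were randomized between a constitutive promoter and sfGFP, and TetR was expressed constitutively. After 5 h of growth at 37 °C in LB with 50 µg/mL chloramphenicol, 10^6 cells were FACS-sorted into 13 fluorescence bins, and each bin was Illumina-sequenced. Repression strength was the top bin index plus one minus the read-weighted mean bin, divided by the value for the unaltered operator. Across three independent transformations, only library members with ≥30 reads in every replicate and a CV ≤0.5 were averaged.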
# Sequence of UniProt P04483 (P04483 whole entry): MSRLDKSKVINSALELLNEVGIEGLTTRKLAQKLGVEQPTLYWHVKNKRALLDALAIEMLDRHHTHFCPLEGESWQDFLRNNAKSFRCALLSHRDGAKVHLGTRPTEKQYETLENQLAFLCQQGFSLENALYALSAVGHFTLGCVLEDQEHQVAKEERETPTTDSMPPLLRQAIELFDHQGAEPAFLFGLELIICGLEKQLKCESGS
row,Sequence,TetR repression strength
1,TCCCTGTGAGTGGCCGAGA,0.0444
2,TCCCAACAAGTGAGTGAGA,0.42
3,TCCCGTGTAGTCATTGAGA,0.248
4,TCCCGTGTAGTAAAAGAGA,0.207
5,TCCCGCCGAGTGGCGGAGA,0.152
6,TCCCAGTTAGTCTTGGAGA,0.38
7,TCCCCCATAGTATTGGAGA,0.222
8,TCCCGTCAAGTAGGTGAGA,0.118
9,TCCCATTAAGTTACCGAGA,0.331
10,TCCCAGAGAGTCAAGGAGA,0.618
11,TCCCAGAGAGTCTATGAGA,0.216
12,TCCCCGATAGTGCATGAGA,0.147
13,TCCCTCATAGTAGAGGAGA,0.216
14,TCCCGGAGAGTCCTTGAGA,0.295
15,TCCCTCTGAGTTGGCGAGA,0.191
16,TCCCCCTAAGTGCTGGAGA,0.329
17,TCCCCTGAAGTGGCGGAGA,0.275
18,TCCCGTATAGTTTATGAGA,0.0104
19,TCCCGCGTAGTGTGAGAGA,0.217
20,TCCCTGATAGTAATGGAGA,0.376
21,TCCCGTAGAGTTGCTGAGA,0.209
22,TCCCGATTAGTATGTGAGA,0.162
23,TCCCTAGTAGTAAGCGAGA,0.136
24,TCCCTTGTAGTATGGGAGA,0.21
25,TCCCTGGGAGTTCCTGAGA,0.144
26,TCCCCACTAGTATCGGAGA,0.191

row,Sequence,TetR repression strength
1,TCCCTACAAGTAAGGGAGA,0.219
2,TCCCGCTTAGTGTAAGAGA,0.205
3,TCCCGACGAGTGGCAGAGA,0.293
4,TCCCGAAAAGTAGTGGAGA,0.131
5,TCCCGCATAGTCCGTGAGA,0.189
6,TCCCTAAGAGTAGTGGAGA,0.121
7,TCCCTCCTAGTGTCAGAGA,0.303
8,TCCCAAGGAGTCGAAGAGA,0.225
9,TCCCCGGTAGTACAAGAGA,0.346
10,TCCCAGTTAGTGCGTGAGA,0.315
11,TCCCGTTTAGTCAAGGAGA,0.241
12,TCCCAATCAGTTTTTGAGA,0.351
13,TCCCGCACAGTGTCAGAGA,0.307
14,TCCCAGGTAGTCGATGAGA,0.187
15,TCCCGGGTAGTCGAGGAGA,0.313
16,TCCCATCCAGTTGGTGAGA,0.0259
17,TCCCGCCAAGTAGGAGAGA,0.555
18,TCCCGCTTAGTTATCGAGA,0.393
19,TCCCTATCAGTGAAGGAGA,0.51
20,TCCCACCAAGTTACGGAGA,0.268
21,TCCCCGGCAGTAGTCGAGA,0.0724
22,TCCCAGTGAGTGTTTGAGA,0.378
23,TCCCTTTTAGTCCGAGAGA,0.24
24,TCCCGTGAAGTAGAAGAGA,0.212
25,TCCCCCATAGTAAGCGAGA,0.296
26,TCCCTTGGAGTAAAGGAGA,0.111

row,Sequence,TetR repression strength
1,TCCCGCTAAGTGGCGGAGA,0.273
2,TCCCAGATAGTTAGGGAGA,0.207
3,TCCCCAAAAGTCGTCGAGA,0.212
4,TCCCTACGAGTTCAAGAGA,0.439
5,TCCCGTTCAGTCGTGGAGA,0.631
6,TCCCGCAGAGTTCGAGAGA,0.262
7,TCCCATTTAGTTAAAGAGA,0.327
8,TCCCCAGCAGTAGCTGAGA,0.138
9,TCCCAACGAGTGATGGAGA,0.333
10,TCCCTGCGAGTTAGGGAGA,0.206
11,TCCCCGTCAGTGCGCGAGA,0.229
12,TCCCACTTAGTGGATGAGA,0.239
13,TCCCATGGAGTTAGAGAGA,0.195
14,TCCCACGCAGTGGTGGAGA,0.325
15,TCCCCCCGAGTAACAGAGA,0.199
16,TCCCGCGCAGTTATAGAGA,0.374
17,TCCCCAGTAGTATAGGAGA,0.0681
18,TCCCAGATAGTGTTGGAGA,0.16
19,TCCCGCCTAGTAACGGAGA,0.199
20,TCCCAGACAGTACAGGAGA,0.118
21,TCCCTTATAGTAACTGAGA,0.429
22,TCCCATCGAGTGGTAGAGA,0.233
23,TCCCAGGGAGTACTGGAGA,0.189
24,TCCCTGCTAGTATGAGAGA,0.134
25,TCCCGCTCAGTTGGGGAGA,0.186
26,TCCCTATTAGTATTTGAGA,0.241

row,Sequence,TetR repression strength
1,TCCCGTGCAGTTGAAGAGA,0.0844
2,TCCCATCCAGTCAAGGAGA,0.595
3,TCCCGGCGAGTCAGGGAGA,0.338
4,TCCCTACTAGTTAATGAGA,0.276
5,TCCCCACGAGTATTGGAGA,0.191
6,TCCCCCAGAGTTGGTGAGA,0.34
7,TCCCGGGCAGTGGTGGAGA,0.379
8,TCCCGATCAGTCCACGAGA,0.0292
9,TCCCAGGCAGTGGCCGAGA,0.168
10,TCCCCCTAAGTTATAGAGA,0.525
11,TCCCTTTGAGTCATTGAGA,0.0867
12,TCCCAACCAGTGGTGGAGA,0.177
13,TCCCATATAGTATGGGAGA,0.0452
14,TCCCATACAGTTTGTGAGA,0.294
15,TCCCGTGGAGTAGTGGAGA,0.102
16,TCCCTAGGAGTGGTCGAGA,0.402
17,TCCCCGGTAGTTTGCGAGA,0.971
18,TCCCAATGAGTCGCCGAGA,0.308
19,TCCCTATCAGTGAAAGAGA,0.784
20,TCCCCTAGAGTGTAGGAGA,0.252
21,TCCCGTTTAGTCGTGGAGA,0.225
22,TCCCAGACAGTGACAGAGA,0.207
23,TCCCGAACAGTGGGGGAGA,0.367
24,TCCCGTCTAGTACGGGAGA,0.189
25,TCCCATCCAGTGATGGAGA,0.248
26,TCCCAATTAGTTGTGGAGA,0.403

row,Sequence,TetR repression strength
1,TCCCGAGGAGTCGCGGAGA,0.199
2,TCCCGTGTAGTAATTGAGA,0.227
3,TCCCAGTCAGTACGGGAGA,0.552
4,TCCCGACGAGTGTGGGAGA,0.138
5,TCCCTTGGAGTTGATGAGA,0.346
6,TCCCTGGGAGTTCGCGAGA,0.205
7,TCCCTGAAAGTGAACGAGA,0.423
8,TCCCGATCAGTCAGCGAGA,0.216
9,TCCCGGGCAGTGACCGAGA,0.415
10,TCCCAGCGAGTGATGGAGA,0.255
11,TCCCGGTTAGTCATGGAGA,0.275
12,TCCCCTTGAGTGGGAGAGA,0.279
13,TCCCAGTGAGTTCAAGAGA,0.338
14,TCCCTTCCAGTTACCGAGA,0.351
15,TCCCCTTGAGTAAAGGAGA,0.242
16,TCCCCTGAAGTGCGTGAGA,0.111
17,TCCCAATTAGTGATAGAGA,0.605
18,TCCCTATGAGTGGGAGAGA,0.363
19,TCCCAGGGAGTAGGGGAGA,0.204
20,TCCCTCTGAGTCTTGGAGA,0.159
21,TCCCCAGCAGTGGTAGAGA,0.234
22,TCCCCGGTAGTGTGTGAGA,0.303
23,TCCCAATGAGTTATCGAGA,0.368
24,TCCCGGTTAGTTACAGAGA,0.268
25,TCCCGACGAGTAGTCGAGA,0.0891
26,TCCCAGGTAGTGGAAGAGA,0.386
